Reference: the RNAGym collection of RNA variant scans (doi:10.7554/elife.90254)
The source gives no read counts; variants with many changes may rest on few reads.

B1: LINE1-mini (parent)
chain: GGCAGAGCUCAACACAGCGUGGCAAAGUGGCUGUGGCUAGACUGCC

Variants of: B1
Experiment: self-cleavage, relative activity (ratio to wild type); higher = more cleavage; in vitro, sequencing; the parent is a self-cleaving ribozyme

Row | Variant | self-cleavage
1 | A11C C15A A24U A25C U28A G29A G35A A41G | 0.01
2 | C3U U32A G36C U38C | 0.21
3 | C8A C13G G29C C31U G40U U43G | 0.49
4 | C3G G7U A12U C15A G19A | 0.05
5 | A4G A26G G36A | 1.33
6 | G1A G5A A6G A12C C31G | 0.03
7 | A12C A16G U28G | 0
8 | C8A G21U A24C C46A | 0.11
9 | G19C G27C U34A | 0.23
10 | G1A G2C C18G U32C U38A | 0.1
11 | G7C C13G C15A G17A C23U C31A | 0.18
12 | G35U G44A C45U | 0.02
13 | G1C A14C A25C U43G | 0
14 | G1U G33C U34G G35U | 0.03
15 | G2A G17U G36A G44U | 0.07
16 | C8G C15U G33U A39G | 0.08
17 | C15G G19U G30C G33U C42A | 0.02
18 | A4G A11G G17A C23G | 0.02
19 | G7C U32A U38G | 0.01
20 | G29A G40A C42G U43G | 0
21 | C10A A12G A16G G29U | 0
22 | A12C C13A C45U | 0.09
23 | C13A A16G U34G | 0.01
24 | C15G C18U C37A A39U G40A G44A | 0.04

Row | Variant | self-cleavage
25 | G2U G5A G29A C31A G35C G36A U38C C45A | 0.02
26 | G2U A24C G29C U32G G44U | 0.01
27 | A6G C18U G19A | 0.39
28 | A12C C15A U20A U28G | 0.01
29 | G22U C23U G30A | 1.24
30 | G21A G35A C42G | 0.08
31 | G27U G29C U32G C37U | 0.02
32 | A14C G17C G22U A41U | 0.08
33 | G30U U32C A39C | 0.03
34 | A25G C37A A39C C42A | 0.04
35 | U20G G21A G29C A39G | 0.04
36 | U9A U20C G40U | 0.04
37 | G2U A6G C15A A25C | 0.01
38 | C8U G36U G44C C46A | 0.03
39 | U9C C13G G29U | 0.02
40 | G21U U34A G36A C37G | 0.02
41 | G2A A6G G35A | 0.27
42 | G19A G33U A41U | 0.07
43 | A16G A24U C37G | 0.03
44 | G2C G5A C10U A24G U34G | 0.02
45 | G1C C10A G36A | 0.02
46 | A6U G7U A11C C37G U38A A41C C42G G44U | 0
47 | G19A G22A C23U A24U U28C G36C | 0.27
48 | C3A A12G U20C U28A G35A G36U | 0.26

Row | Variant | self-cleavage
49 | A6G G7U A12U A26G U34A G36U G40C | 0.04
50 | G5C G27U A39U | 0.01
51 | G22A G36U U43A C45G | 0.05
52 | C3U C18G G19A U20C A26C | 0.03
53 | C13G C15U C18U U20G C37U A41U U43A | 0.01
54 | G2A G19C A26C G36U | 0.12
55 | G2U A12C A14U A16G A39G C45A | 0.01
56 | G7U C13A C15A C37G | 0.1
57 | G17C G36U C45U | 0.08
58 | A25G G27U C31U | 0.25
59 | C13G U28G G33C | 0.02
60 | G2U U9C A11G C23A | 0.01
61 | C3U A4U G17A A26U A39U G44U | 0.01
62 | A14G G19A U32C G33U G36U G44C | 0.02
63 | G5A C13G U38C | 0.04
64 | C13A G21C G40A C42U | 0.04
65 | G30C G40A C42U | 0.15
66 | G5C A11C G29U | 0.05
67 | G2U U34A U43C | 0.03
68 | G5U C31U C46A | 0.03
69 | C3U A4G C8U A12G G17A | 0.05
70 | A16U U34G U43C | 0.02
71 | C8U A14C C23A | 0.04
72 | A4G C31A G33U A41C | 0.04

Row | Variant | self-cleavage
73 | A12U C23G A24U | 0.12
74 | G2C G35C U38C G40U | 0.09
75 | G5U A12C C18A A24C C37G | 0.02
76 | G21C G22A U28G | 0.13
77 | G7U A12C A24C | 0.01
78 | G1U A4U G7A A25U U28A G36U | 0.12
79 | C3A C8A C10U G17C A41U | 0.04
80 | A26G G30C G36U C37U | 0.01
81 | A4U C42U U43A | 0.83
82 | A14G A24U U32C | 0
83 | A4U G5A G19C G21U A26G G27U G29C | 0.12
84 | G27A G33C U34C U38G | 0.08
85 | G1U G21U A25U G30C G40U | 0.03
86 | G7C G29U C37U | 0.08
87 | A4C A6U G27C C37G | 0.03
88 | C10A G19U G40C | 0.04
89 | A12C C23U G27C U32A G40U | 0
90 | G7C A12C G21U G35U | 0.1
91 | G2U C3A G21U G30U C46A | 0.08
92 | A6U A24C G35C G40U C45G | 0.01
93 | A6U A26U G40C | 0.22
94 | C8G C13A C18G | 0.14
95 | G5C U9C A41G | 0.05
96 | G2A G7A G36C | 0.44

Row | Variant | self-cleavage
97 | G2A A24C U32G U38C | 0.05
98 | G21A A26G A41U | 1.08
99 | C10A U32C G44C | 0.01
100 | A11C C15A C31G G44A | 0.02
101 | G2A G7C A24G G36U | 0.5
102 | G5U G22C A24C | 0.02
103 | G5U U9C U20A G40C | 0.03
104 | G5A A6G U9A | 0.36
105 | A11U C15A U34A C45A | 0.01
106 | A16U A25C C45A C46U | 0.01
107 | A25U G40C U43G | 0.02
108 | G2C U9C A11U C18A A41C | 0.01
109 | G22U A24C C42A | 0.17
110 | A14U A24C G29C C37A U38C | 0.04
111 | G1A C23U A25C | 0.35
112 | C10A G22C G33U | 0.04
113 | C8G A25C A26U G27A | 0.01
114 | C3G A4U C45A | 0.06
115 | C3U A39U G44C | 0.09
116 | C3G C18G G30A G35U | 0.09
117 | A14C A16G A24U A25C | 0.02
118 | G19A G30U A41C | 0.04
119 | G5A G29U C31U | 0.02
120 | C10U U20G A41C | 0.04

Row | Variant | self-cleavage
121 | A4C C18G U28C C46U | 0.14
122 | G7C C10G G36A | 0.01
123 | G1A C8G G22C | 0.04
124 | C15U G30U G40U | 0.21
125 | A25U U28C C31U G40C | 0.04
126 | A4U C23U G40A | 1.45
127 | G17U A25U C42U | 0.05
128 | G5A G22C G40A | 0.13
129 | C3A A6U G30U G33A G36U C46G | 0.1
130 | U20C G30U C31U C45A | 0.22
131 | A4C G19U G29A U38G | 0.05
132 | U9C C23A G44A | 0.03
133 | C3U G40U C45G | 0.07
134 | C13A G21A C42U | 1.18
135 | G2A C8A C10G U32A C45A | 0.03
136 | G30U U34C C46U | 0.09
137 | C10U A24G A25C A39U | 0.03
138 | C10G A11C G35A G36U | 0.01
139 | G2A C18G G27A C37G | 0.1
140 | C10U G40U C46A | 0.03
141 | G2U G5A G22C C31U | 0.02
142 | C8A C15G G35C A41G | 0.16
143 | A11U G27C C31G U34A | 0.03
144 | C8A C10G A12U | 0.02

Row | Variant | self-cleavage
145 | G1U A4C U28G C45A | 0.03
146 | C3A C42G U43G | 0.11
147 | A4U A26G U34C | 0.06
148 | G2A G17U A41U | 0.09
149 | C3U C13G C15G G44C | 0.08
150 | G5C G30U U38C | 0.04
151 | C8U U34A C46A | 0.15
152 | U9C U20G U38C | 0.03
153 | C18G G21C A24U A39G | 0.03
154 | A24U C42U C46G | 0.04
155 | C8G C37A A39C C45G | 0.01
156 | A6U A24U U28C G35U | 0.09
157 | G5U U32C G36A | 0.06
158 | U9G A11U G19U A26C | 0
159 | C8U U9A G17A G29U | 0.2
160 | A6U C18U U34C | 0.02
161 | A14C C23G G44U | 0.03
162 | G19C G27A G36A A39G | 0.03
163 | A11C C18U G35C G36A A39C | 0.02
164 | G1A C3G C8U G44U | 0.18
165 | C8U C42G G44A | 0.06
166 | C10A C15U G19C C42U | 0.05
167 | U28G U32A G36U C37A G40U | 0.06
